Results are given in words; binding and its absence hold for the method and conditions named. In cells and extracts the contact can be indirect. Some binding calls cover weakened binding; strength is not graded here.

The chains behind the UniProt entries cited, without tags or fusion partners.
UniProt P48432: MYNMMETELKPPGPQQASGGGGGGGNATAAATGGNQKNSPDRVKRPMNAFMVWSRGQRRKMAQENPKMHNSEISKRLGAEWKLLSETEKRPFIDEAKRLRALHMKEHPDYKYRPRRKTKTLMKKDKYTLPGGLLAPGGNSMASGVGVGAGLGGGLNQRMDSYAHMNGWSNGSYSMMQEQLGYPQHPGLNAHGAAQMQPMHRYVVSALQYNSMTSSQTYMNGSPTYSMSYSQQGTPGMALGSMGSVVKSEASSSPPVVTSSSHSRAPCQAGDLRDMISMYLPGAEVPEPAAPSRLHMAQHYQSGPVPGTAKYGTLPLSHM
UniProt P20263: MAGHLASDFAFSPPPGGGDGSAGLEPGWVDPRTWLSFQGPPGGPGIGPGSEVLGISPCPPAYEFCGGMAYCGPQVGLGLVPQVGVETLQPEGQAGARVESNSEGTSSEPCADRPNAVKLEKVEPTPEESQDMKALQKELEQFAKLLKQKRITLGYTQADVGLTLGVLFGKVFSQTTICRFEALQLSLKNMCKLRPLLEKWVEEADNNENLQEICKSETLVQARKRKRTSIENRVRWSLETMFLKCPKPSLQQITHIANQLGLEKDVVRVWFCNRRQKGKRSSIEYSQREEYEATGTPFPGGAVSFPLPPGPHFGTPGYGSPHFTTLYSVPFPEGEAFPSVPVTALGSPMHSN
UniProt Q61937: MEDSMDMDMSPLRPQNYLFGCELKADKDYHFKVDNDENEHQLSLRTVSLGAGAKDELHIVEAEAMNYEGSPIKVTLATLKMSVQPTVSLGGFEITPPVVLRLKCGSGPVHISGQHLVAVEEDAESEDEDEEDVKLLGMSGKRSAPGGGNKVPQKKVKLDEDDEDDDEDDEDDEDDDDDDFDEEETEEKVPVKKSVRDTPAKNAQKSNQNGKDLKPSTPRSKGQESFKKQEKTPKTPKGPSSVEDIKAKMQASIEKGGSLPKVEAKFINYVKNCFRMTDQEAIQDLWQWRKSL

Assay [1] deals with Sox2 (mouse (endogenous in R1 ES cells)) (UniProt P48432). Kind of assay: proximity ligation; in situ PLA on ES cells with another set of antibodies (anti-Sox2 MAB2018, R&D Systems; anti-Npm1 ab15440, abcam); data not shown.
Assay [2] shares this target. Kind of assay: co-IP; anti-Sox2 (ab15830) cross-linked to Dynabeads Protein G, about 0.2 mg whole cell extract of ES cells overnight at 4°C; eluted with 1 M NaCl, then 0.1 M citrate; Western blot with anti-Npm1. (In general: In western blotting, separated proteins are transferred to a membrane and probed.)
The target is the same in assay [3]. Put plainly: proximity ligation; in situ PLA (Duolink) on fixed, permeabilised murine R1 ES cells with two primary antibodies against the endogenous proteins; confocal microscopy; signal needs less than 40 nm between the antibodies; interphase and mitotic cells; for Npm1/Sox2 also after 24 h of LIF withdrawal, 2% dimethyl sulfoxide or 2.0 uM retinoic acid.
The target in assay [4] is Oct4 (mouse (endogenous in R1 ES cells)) (UniProt P20263). The description is as above.
Assay [5] concerns the target T1, Nanog (mouse (endogenous in R1 ES cells)) (UniProt Q80Z64).
T1 sequence: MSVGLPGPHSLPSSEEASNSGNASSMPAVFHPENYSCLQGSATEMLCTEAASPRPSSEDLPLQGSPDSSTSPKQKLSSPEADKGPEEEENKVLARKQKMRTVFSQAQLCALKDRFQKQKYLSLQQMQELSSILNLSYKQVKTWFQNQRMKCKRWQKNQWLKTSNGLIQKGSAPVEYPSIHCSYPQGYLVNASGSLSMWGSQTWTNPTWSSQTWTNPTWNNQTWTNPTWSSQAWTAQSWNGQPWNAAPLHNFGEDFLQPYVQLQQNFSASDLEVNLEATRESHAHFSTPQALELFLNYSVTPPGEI
Described as above.

As for “Nucleophosmin/nucleoplasmin family member 1 (Npm1) (from UniProt Q61937 1-292)”, the binding result in assay [1], in assay [2], in assay [3], in assay [4] and in assay [5] was “binds” in each case.
“Npm1 phosphorylated at residue T198 (from UniProt Q61937 1-292)”: in assay [4], the binding entry is “binds”.

B1: translationally controlled tumor protein (Tpt1) (protein, UniProt P63028 1-172)
chain: MIIYRDLISHDELFSDIYKIREIADGLCLEVEGKMVSRTEGAIDDSLIGGNASAEGPEGEGTESTVVTGVDIVMNHHLQETSFTKEAYKKYIKDYMKSLKGKLEEQKPERVKPFMTGAAEQIKHILANFNNYQFFIGENMNPDGMVALLDYREDGVTPFMIFFKDGLEMEKC
B1: the values for the binding entry in assay [3], in assay [4] and in assay [5] were “no binding”, “binds” and “no binding”, respectively.

For the origin of these results see PMC3006024.
